Assay results from patent US7595299B2, “Peptides as NS3-serine protease inhibitors of hepatitis C virus” (priority 2000, dated 2009).
pKi: −log10 of the molar value. Starred links: 1 amine or outer side, 2 acyl side, 3 side chain; linkers in the order of their positions; H or OH if unused. Non-standard residues stand in square brackets, D forms with d. Residues, ends and D or L forms follow the SMILES beside them. ξ: configuration not given here. *: point of attachment. ξ(3-Amino-2-oxohex-5-enoyl) = C=CCC(N[*:1])C(=O)C(=O)[*:2]; Benzoyl(2-COOH-4,5-Cl2) = O=C(O)c1cc(Cl)c(Cl)cc1C(=O)*; X14 = O=C([C@@H](N[*:1])C1CC[S+]([O-])CC1)[*:2]; Benzoyl(4-SO2NH2) = NS(=O)(=O)c1ccc(C(=O)*)cc1; X1 = O=C(c1ccc(N2CCN([*:1])CC2)nc1)[*:2]; Benzoyl(2-COOH) = O=C(O)c1ccccc1C(=O)*; X11 = CC(C)(C)c1cc(C(=O)O)cc(C(=O)*)c1; Isobutyloxycarbonyl = CC(C)COC(=O)*; X2 = O=C(C(=O)[*:2])C(CC1CC1)N[*:1]; Gly(cPent) = N[C@H](C(=O)O)C1CCCC1; X7 = O=C(C(=O)[*:2])C(N[*:1])C1CC1; Ala(cPr) = N[CH](CC1CC1)C(=O)O; Benzoyl(4-F) = O=C(c1ccc(F)cc1)*; X30 = O=C(C(OC1CCCCO1)c1ccccc1)*; X4 = CCCC(N[*:1])C(=O)C(=O)[*:2]; X34 = CC(C)(C(=O)*)c1ccc(Cl)cc1; Gly(cPr) = N[CH](C(=O)O)C1CC1; AllylGly = C=CC[CH](N)C(=O)O; Chg = N[CH](C(=O)O)C1CCCCC1; Pen = CC(C)(S)[C@H](N)C(=O)O; Phg = N[CH](C(=O)O)c1ccccc1; Ethoxycarbonyl = CCOC(=O)*; ξChg = NC(C(=O)O)C1CCCCC1; ξPhg = NC(C(=O)O)c1ccccc1; X12 = O=C(C(O)c1ccccc1)*; ξL = CC(C)CC(N)C(=O)O; X24 = O=C(Cc1ccsc1)*; N(Me)OMe = CON(C)*; Bn = c1ccc(C*)cc1; OtBu = CC(C)(C)O*; Ms = CS(=O)(=O)*; X32 = CCOC(=O)C*

molecular target: Recombinant heterodimeric HCV NS3/NS4A protease (strain 1a) (Hepatitis C virus genotype 1a, UniProt P27958); assay: biochemical; settings: HCV protease continuous assay, Table 1; read-out: Ki* Range

Row | SMILES | pKi
1 | CCCC(NC(=O)[C@H](CC(C)C)NC(=O)[C@@H](NC(=O)C(CC(C)C)NS(C)(=O)=O)C1CCCC1)C(=O)C(=O)NCC(=O)N[C@H](C(=O)O)c1ccccc1 (some centres unmarked) [Example 73] (Ms-[ξL][Gly(cPent)]L[X4]G[Phg]-OH) | > 7.00
2 | CCCC(NC(=O)[C@H](CC(C)C)NC(=O)[C@@H](NC(=O)c1ccc(S(N)(=O)=O)cc1)C1CCCC1)C(=O)C(=O)NCC(=O)N[C@H](C(=O)O)c1ccccc1 (some centres unmarked) [Example 74] ({Benzoyl(4-SO2NH2)}-[Gly(cPent)]L[X4]G[Phg]-OH) | 6.00 to 7.00
3 | CCCC(NC(=O)[C@H](CC(C)C)NC(=O)[C@@H](NC(=O)c1ccccc1C(=O)O)C1CCCC1)C(=O)C(=O)NCC(=O)N[C@H](C(=O)O)c1ccccc1 (some centres unmarked) [Example 75] ({Benzoyl(2-COOH)}-[Gly(cPent)]L[X4]G[Phg]-OH) | 6.00 to 7.00
4 | CCCC(NC(=O)[C@H](CC(C)C)NC(=O)[C@@H](NC(=O)c1cc(Cl)c(Cl)cc1C(=O)O)C1CCCC1)C(=O)C(=O)NCC(=O)N[C@H](C(=O)O)c1ccccc1 (some centres unmarked) [Example 76] ({Benzoyl(2-COOH-4,5-Cl2)}-[Gly(cPent)]L[X4]G[Phg]-OH) | 6.00 to 7.00
5 | CCCC(NC(=O)[C@H](CC(C)C)NC(=O)[C@@H](NC(=O)OCC(C)C)C1CC[S+]([O-])CC1)C(=O)C(=O)NCC(=O)N[C@H](C(=O)O)c1ccccc1 (some centres unmarked) [Example 77] | < 6.00
6 | CCCC(NC(=O)[C@H](CC(C)C)NC(=O)[C@@H](NC(=O)C(CC(C)C)NS(C)(=O)=O)C1CC[S+]([O-])CC1)C(=O)C(=O)NCC(=O)N[C@H](C(=O)O)c1ccccc1 (some centres unmarked) [Example 78] (Ms-[ξL][X14]L[X4]G[Phg]-OH) | 6.00 to 7.00
7 | CCCC(NC(=O)[C@H](CC(C)C)NC(=O)[C@@H](NC(=O)c1ccc(S(N)(=O)=O)cc1)C1CC[S+]([O-])CC1)C(=O)C(=O)NCC(=O)N[C@H](C(=O)O)c1ccccc1 (some centres unmarked) [Example 79] | < 6.00
8 | CCCC(NC(=O)[C@H](CC(C)C)NC(=O)[C@@H](NC(=O)c1ccccc1C(=O)O)C1CC[S+]([O-])CC1)C(=O)C(=O)NCC(=O)N[C@H](C(=O)O)c1ccccc1 (some centres unmarked) [Example 80] | 6.00 to 7.00
9 | CCCC(NC(=O)[C@H](CC(C)C)NC(=O)[C@@H](NC(=O)c1cc(Cl)c(Cl)cc1C(=O)O)C1CC[S+]([O-])CC1)C(=O)C(=O)NCC(=O)N[C@H](C(=O)O)c1ccccc1 (some centres unmarked) [Example 81] | 6.00 to 7.00
10 | CCCC(NC(=O)[C@H](CC(C)C)NC(=O)[C@@](C)(NC(=O)c1cc(Cl)c(Cl)cc1C(=O)O)C1CCCCC1)C(=O)C(=O)NCC(=O)N[C@H](C(=O)O)c1ccccc1 (some centres unmarked) [Example 82] | < 6.00
11 | CCCC(NC(=O)[C@H](CC(C)C)NC(=O)[C@@](C)(NC(=O)CC(C)(C)C)C1CCCCC1)C(=O)C(=O)NCC(=O)N[C@H](C(=O)O)c1ccccc1 (some centres unmarked) [Example 83] | < 6.00
12 | CCCC(NC(=O)[C@H](CC(C)C)NC(=O)[C@@](C)(NC(=O)c1ccc(S(N)(=O)=O)cc1)C1CCCCC1)C(=O)C(=O)NCC(=O)N[C@H](C(=O)O)c1ccccc1 (some centres unmarked) [Example 85] | < 6.00
13 | CCCC(NC(=O)[C@H](CC(C)C)NC(=O)[C@@](C)(NC(=O)c1c(F)c(F)c(F)c(F)c1C(=O)O)C1CCCCC1)C(=O)C(=O)NCC(=O)N[C@H](C(=O)O)c1ccccc1 (some centres unmarked) [Example 86] | < 6.00
14 | CCCC(NC(=O)[C@H](CC(C)C)NC(=O)[C@@H](NC(=O)OCC(C)C)C(C)(C)SC)C(=O)C(=O)NCC(=O)N[C@H](C(=O)O)c1ccccc1 (some centres unmarked) [Example 87] (Isobutyloxycarbonyl-[Pen](Me)L[X4]G[Phg]-OH) | 6.00 to 7.00
15 | CCCC(NC(=O)[C@H](CC(C)C)NC(=O)[C@@H](NC(=O)OCC(C)C)C(C)(C)S)C(=O)C(=O)NCC(=O)N[C@H](C(=O)O)c1ccccc1 (some centres unmarked) [Example 88] (Isobutyloxycarbonyl-[Pen]L[X4]G[Phg]-OH) | 6.00 to 7.00
16 | CCCC(NC(=O)[C@H](CC(C)C)NC(=O)[C@@H](NC(=O)OCC(C)C)C(C)(C)SCc1ccccc1)C(=O)C(=O)NCC(=O)N[C@H](C(=O)O)c1ccccc1 (some centres unmarked) [Example 90] (Isobutyloxycarbonyl-[Pen](Bn)L[X4]G[Phg]-OH) | 6.00 to 7.00
17 | CCCC(NC(=O)[C@H](CC(C)C)NC(=O)[C@@H](NC(=O)OCC(C)C)C(C)(C)SCC(=O)OCC)C(=O)C(=O)NCC(=O)N[C@H](C(=O)O)c1ccccc1 (some centres unmarked) [Example 91] (Isobutyloxycarbonyl-[Pen](X32)L[X4]G[Phg]-OH) | 6.00 to 7.00
18 | CCCC(NC(=O)[C@H](CC1CO1)NC(=O)C(NC(=O)OCC(C)C)C1CCCCC1)C(=O)C(=O)NCC(=O)NC(C(=O)OC(C)(C)C)c1ccccc1 (some centres unmarked) [Example 92] | < 6.00
19 | CCCC(NC(=O)[C@H](C[C@@H](O)CO)NC(=O)C(NC(=O)OCC(C)C)C1CCCCC1)C(=O)C(=O)NCC(=O)NC(C(=O)O)c1ccccc1 (some centres unmarked) [Example 93] | < 6.00

Row | SMILES | pKi
20 | CC(C)COC(=O)NC(C(=O)N[C@@H](CC1CC1)C(=O)NC(CC1CC1)C(=O)C(=O)NCC(=O)NC(C(=O)OC(C)(C)C)c1ccccc1)C1CCCCC1 (some centres unmarked) [Example 94] (Isobutyloxycarbonyl-[ξChg][Ala(cPr)][X2]G[ξPhg]-OtBu) | 6.00 to 7.00
21 | C=CCC(NC(=O)C(NC(=O)OCC(C)C)C1CCCCC1)C(=O)NC(CC=C)C(=O)C(=O)NCC(=O)NC(C(=O)OC(C)(C)C)c1ccccc1 (centres unmarked) [Example 95] (Isobutyloxycarbonyl-[Chg][AllylGly][ξ(3-Amino-2-oxohex-5-enoyl)]G[Phg]-OtBu; configuration not given here) | 6.00 to 7.00
22 | CC(C)COC(=O)NC(C(=O)NC(CC1CC1)C(=O)NC(CC1CC1)C(=O)C(=O)NCC(=O)NC(C(=O)O)c1ccccc1)C1CCCCC1 (centres unmarked) [Example 96] (Isobutyloxycarbonyl-[Chg][Ala(cPr)][X2]G[Phg]-OH; configuration not given here) | > 7.00
23 | C=CCC(NC(=O)C(NC(=O)OCC(C)C)C1CCCCC1)C(=O)NC(CC=C)C(=O)C(=O)NCC(=O)NC(C(=O)O)c1ccccc1 (centres unmarked) [Example 97] (Isobutyloxycarbonyl-[Chg][AllylGly][ξ(3-Amino-2-oxohex-5-enoyl)]G[Phg]-OH; configuration not given here) | > 7.00
24 | CCCC(NC(=O)[C@H](CC(C)C)NC(=O)C(NC(=O)c1cc(C(=O)O)cc(C(C)(C)C)c1)C1CCCCC1)C(=O)C(=O)NCC(=O)N[C@H](C(=O)O)c1ccccc1 (some centres unmarked) [Example 98] (X11-[ξChg]L[X4]G[Phg]-OH) | > 7.00
25 | CCCC(NC(=O)[C@H](CC(C)C)NC(=O)[C@@H](NC(=O)c1ccc(F)cc1)C1CCCCC1)C(=O)C(=O)NCC(=O)N[C@H](C(=O)O)c1ccccc1 (some centres unmarked) [Example 100] ({Benzoyl(4-F)}-[Chg]L[X4]G[Phg]-OH) | 6.00 to 7.00
26 | CCCC(NC(=O)[C@H](CC(C)C)NC(=O)[C@@H](NC(=O)Cc1ccsc1)C1CCCCC1)C(=O)C(=O)NCC(=O)N[C@H](C(=O)O)c1ccccc1 (some centres unmarked) [Example 101] (X24-[Chg]L[X4]G[Phg]-OH) | 6.00 to 7.00
27 | CCCC(NC(=O)[C@H](CC(C)C)NC(=O)[C@@H](NC(=O)C(C)(C)c1ccc(Cl)cc1)C1CCCCC1)C(=O)C(=O)NCC(=O)N[C@H](C(=O)O)c1ccccc1 (some centres unmarked) [Example 102] (X34-[Chg]L[X4]G[Phg]-OH) | 6.00 to 7.00
28 | CC(C)COC(=O)NC(C(=O)NC(CC1CC1)C(=O)NC(C(=O)C(=O)NCC(=O)NC(C(=O)OC(C)(C)C)c1ccccc1)C1CC1)C1CCCCC1 (centres unmarked) [Example 103] (Isobutyloxycarbonyl-[Chg][Ala(cPr)][X7]G[Phg]-OtBu; configuration not given here) | < 6.00
29 | CC(C)COC(=O)NC(C(=O)NC(CC1CC1)C(=O)NC(C(=O)C(=O)NCC(=O)NC(C(=O)O)c1ccccc1)C1CC1)C1CCCCC1 (centres unmarked) [Example 104] (Isobutyloxycarbonyl-[Chg][Ala(cPr)][X7]G[Phg]-OH; configuration not given here) | < 6.00
30 | COC(=O)C(NC(=O)CNC(=O)C(=O)C(CC1CC1)NC(=O)C(CC1CC1)NC(=O)C(NC(=O)OCC(C)C)C1CCCCC1)c1ccccc1 (centres unmarked) [Example 105] (Isobutyloxycarbonyl-[Chg][Ala(cPr)][X2]G[Phg]-OMe; configuration not given here) | 6.00 to 7.00
31 | CC(C)COC(=O)NC(C(=O)NC(CC1CC1)C(=O)NC(CC1CC1)C(=O)C(=O)NCC(=O)NC(C(N)=O)c1ccccc1)C1CCCCC1 (centres unmarked) [Example 106] (Isobutyloxycarbonyl-[Chg][Ala(cPr)][X2]G[Phg]-NH2; configuration not given here) | > 7.00
32 | CCOC(=O)N1CCN(c2ccc(C(=O)NC(C(=O)NC(CC3CC3)C(=O)NC(CC3CC3)C(=O)C(=O)NCC(=O)NC(C(=O)OC(C)(C)C)c3ccccc3)C3CCCCC3)cn2)CC1 (centres unmarked) [Example 107] (Ethoxycarbonyl-[X1][Chg][Ala(cPr)][X2]G[Phg]-OtBu; configuration not given here) | < 6.00
33 | CCOC(=O)N1CCN(c2ccc(C(=O)NC(C(=O)NC(CC3CC3)C(=O)NC(CC3CC3)C(=O)C(=O)NCC(=O)NC(C(=O)O)c3ccccc3)C3CCCCC3)cn2)CC1 (centres unmarked) [Example 108] (Ethoxycarbonyl-[X1][Chg][Ala(cPr)][X2]G[Phg]-OH; configuration not given here) | 6.00 to 7.00
34 | CC(C)(C)OC(=O)C(NC(=O)CNC(=O)C(=O)C(CC1CC1)NC(=O)C(CC1CC1)NC(=O)C(NC(=O)C(OC1CCCCO1)c1ccccc1)C1CCCCC1)c1ccccc1 (centres unmarked) [Example 109] (X30-[Chg][Ala(cPr)][X2]G[Phg]-OtBu; configuration not given here) | 6.00 to 7.00
35 | O=C(CNC(=O)C(=O)C(CC1CC1)NC(=O)C(CC1CC1)NC(=O)C(NC(=O)C(O)c1ccccc1)C1CCCCC1)NC(C(=O)O)c1ccccc1 (centres unmarked) [Example 110] (X12-[Chg][Ala(cPr)][X2]G[Phg]-OH; configuration not given here) | > 7.00
36 | CC(C)COC(=O)NC(C(=O)NC(CC1CC1)C(=O)NC(CC1CC1)C(=O)C(=O)NCC(=O)NC(C(=O)OC(C)(C)C)c1ccccc1)C1CC1 (centres unmarked) [Example 111] (Isobutyloxycarbonyl-[Gly(cPr)][Ala(cPr)][X2]G[Phg]-OtBu; configuration not given here) | 6.00 to 7.00
37 | CC(C)COC(=O)NC(C(=O)NC(CC1CC1)C(=O)NC(CC1CC1)C(=O)C(=O)NCC(=O)NC(C(=O)O)c1ccccc1)C1CC1 (centres unmarked) [Example 112] (Isobutyloxycarbonyl-[Gly(cPr)][Ala(cPr)][X2]G[Phg]-OH; configuration not given here) | 6.00 to 7.00
38 | CON(C)C(=O)C(NC(=O)CNC(=O)C(=O)C(CC1CC1)NC(=O)C(CC1CC1)NC(=O)C(NC(=O)OCC(C)C)C1CCCCC1)c1ccccc1 (centres unmarked) [Example 113] (Isobutyloxycarbonyl-[Chg][Ala(cPr)][X2]G[Phg]-{N(Me)OMe}; configuration not given here) | > 7.00
